B1: CPEB3 Ribozyme (parent)
chain: UAACAGGGGGCCACAGCAGAAGCGUUCACGUCGCAGCCCCUGUCAGAUUCUGGUGAAUCUGCGAAUUCUGCUGUAUAUCUC

The source gives no read counts; variants with many changes may rest on few reads.

This is an account of results in the RNAGym collection of RNA variant scans (doi:10.1093/nar/gkz1192).

The variants in this series derive from B1. Briefly: self-cleavage, relative activity (ratio to wild type); higher = more cleavage; in vitro, sequencing. Summed up: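 CPEB3 self-cleaving ribozyme mutant libraries were made by rounds of error-prone PCR, barcoded, and transcribed in vitro with T7 RNA polymerase for 5 hours at 37°C. Cleavage occurred during transcription and a 15 min DNase I step before EDTA stop. RNAs were reverse transcribed with template switching and Illumina-sequenced, with DNA sequencing mapping barcodes to variants. Relative activity is the variant's cleaved/total read fraction divided by wild type's (minimum 5 reads), averaged across three batches.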
Consider A2G A35G A56G, for which the self-cleavage came to 1.17. The value for A2G U25C U41C was 0.46. The value for A2G A21G G52C was 0.24; that for A2G U41A G53C U60C U66A A75G was 0.18. In the case of A2G A28G G42A U72C it was 0.47.

Take A2G U31C U60A U80A: the self-cleavage was found to be 0.12.

As for A2U A13C U72A, the self-cleavage stood at 0.35. In the case of A2G A15G A20U A45U A57G U60C it was 0.08; in that of A2G U60A U72G, 0.14. The value for A2G U26A U43A A45G A64G U80C was 0.32; that for A2U A3G U25C A47G A64G U76A was 0.14; that for A2G U25C A56G A57G U80C was 0.29. In the case of A2G G10A A15C it was 0.43.

On to A2G A21U U54A U78C, for which the self-cleavage stood at 0.1. In the case of A2G G19U U49C U78C it was 0.14; in that of A2G U25C U41A U51A, 0.34.

Regarding A2G A20C U54C C62G C68G U80C, the self-cleavage worked out at 0.16. On to A2G A35U U43C C44U U66C, for which the self-cleavage amounted to 0.19. As to A2G A28C U58C, the self-cleavage came to 0.14. The value for A2G A20G A35U C59U was 0.05; that for A2G A47U U49C was 0.15. Consider A2G A20G C39A U67A, for which the self-cleavage amounted to 0.07. The value for A2G G16A A28G C40G U66A U69A was 0.12; that for A2G C11U A56C U66C was 0.11; that for A2G C11G A20G U25A A56U was 0.29. In the case of A2G U26C A45U A65G U67C it was 0.15; in that of A2U A5G U31A U41C, 0.39; in that of A2G G10U G52U, 0.35.

As to A2G C23G C32A C38G A57G A64C A65G, the self-cleavage came out at 0.02.

In the case of A2G C11U U67C, the self-cleavage came out at 0.07.

For the variant A2G U41C U58C, the self-cleavage came to 0.15. A2G C29G U72A: the self-cleavage is 0.37. Take A2G A20U G24A U60A U78A: the self-cleavage was 0.14.

As for A2G G7A C29G A56U U78C U80C, the self-cleavage stood at 0.1.

As to A2G U69C A75G, the self-cleavage was 0.16.

As to A2G G36A U41A G61C A65G U72C, the self-cleavage stood at 0.17. Turning to A2G U41C U54G, the self-cleavage came to 0.54. The value for A2G C40U A45G U74C was 0.31. In the case of A2G A15U A47G A56G U74A it was 0.38. In the case of A2G G8A C40A U41C U51C G63A it was 0.07; in that of A2G A28C U41A, 0.07; in that of A2G U69C U72A, 0.2. With A2G U31C A35G A47G U72C, the self-cleavage was found to be 0.31.

Take A2G A15U A45U A65G U76A: the self-cleavage came to 0.09. The value for A2U A3G A13U U58A A64G U80A C81U was 0.22. On to A2G U31C G53U U72C, for which the self-cleavage was determined as 0.44. In the case of A2G U41C A64U it was 0.42. The value for A2G G6U U26A was 0.64; that for A2G U26A U41C U43C A45U was 0.26. Consider A2U A13C A56G U74A, for which the self-cleavage was 0.96.

With A2G A18G A47G U72C, the self-cleavage is 0.18. In the case of A2G G63U U66C U78C it was 0.16; in that of A2G G6A A20G U41C U60A A77G, 0.05. With A2G A45G U78A, the self-cleavage was 0.88. For A2G U25C A57G, the self-cleavage amounted to 0.07. As for A2G G24A A45C A56U, the self-cleavage stood at 0.53. As for A2G A21G A35G U43A U69A, the self-cleavage amounted to 0.58. In the case of A2G U26A A64G U80A it was 0.55; in that of A2G G6U A15G U78C, 0.3; in that of A2G A18U U41A A45U U54C A56U U69A, 0.07. The value for A2G A47G U49A A57G was 0.55; that for A2G C11U A13G A21U U25C A28U C37U was 0.05. In the case of A2G A18U U26A U31A it was 0.25; in that of A2U A3G A18G A20G A57G, 0.6.

With A2G C11A U54C U74C A75U, the self-cleavage is 0.39. Consider A2G G10A A13U G42A U49C U67C C68A, for which the self-cleavage was 0.04. The value for A2G A56G U78A was 0.68; that for A2G A45C U54C A65G U66C was 0.34; that for A2G U25C U49C U54C A77G was 0.12. With A2U A13G A21G G33U U43C A45G U74C, the self-cleavage stood at 0.05. The value for A2G C59G U69A was 0.11; that for A2G G6U U43A A45G C68A U69G U72C was 0.28; that for A2G U25C A28G U41A G53U was 0.33. As for A2G U48C A56G U80C, the self-cleavage stood at 0.3.

With A2G G42U C62U U72C, the self-cleavage was determined as 0.15. The value for A2G A45G U58A was 0.13; that for A2G G9A A20G C29A U54C was 0.09; that for A2G U41C U66C U72C was 0.18. The value for A2G U48C U69C U72A was 0.07; that for A2G U26C U67C was 0.43; that for A2G C12A A21G U31C U72A was 0.03. In the case of A2G A56G A77G it was 0.54. On to A2G G9A A15U U67A U80C, for which the self-cleavage came to 0.09. The value for A2G U41C U67C was 0.16; that for A2G G9U A15G U41G U60C U72C was 0.03. The value for A2G A35U U49C U60C was 0.16.

Regarding A2U A3G U72A, the self-cleavage came out at 0.81. The value for A2U A13G C37A U60A was 0.16; that for A2G U51A A65G was 0.23; that for A2G G9U U74A was 0.38. For A2G G8C C11A A13G A15C C62U U69C, the self-cleavage is 0.07.

For the variant A2G U25A A57G, the self-cleavage is 0.15. The value for A2G U72A U78C was 0.3; that for A2G A28G A47G was 0.43; that for A2G C17G A18G U31A was 0.33. In the case of A2G A64U U80A, the self-cleavage came out at 0.3. The value for A2G U26C A35U A47U was 0.24.

With A2G U58C U67C, the self-cleavage worked out at 0.17.

For A2G A18G C39U A56U, the self-cleavage worked out at 0.38. In the case of A2G U41A C62U A77U it was 0.12; in that of A2G A28G U76A, 0.21. In the case of A2G A18U U31C A56G U60C U67C it was 0.02. In the case of A2G C68U U72G, the self-cleavage amounted to 0.14. A2G A15G U26A A35G U41C U49A U72C: the self-cleavage worked out at 0.21.

As to A2G U26C A28U A35G U69A U72A, the self-cleavage was 0.13.

Consider A2U A3G A45G U72A U80A, for which the self-cleavage was 0.89.

In the case of A2G C23U U76C, the self-cleavage worked out at 0.38. On to A2G U26C C39U U43C U51A U78C, for which the self-cleavage is 0.27. The value for A2U A3G A13G A28G A56G was 0.08. In the case of A2G A20U A28U it was 0.28; in that of A2G G10U U41G A56G, 0.17.

A2G A15U U26C C32U: the self-cleavage came out at 0.25.

Turning to A2G A20G U41A U49A A64G, the self-cleavage worked out at 0.26.

As for A2G G8A A18U A45G U51A, the self-cleavage was found to be 0.19. In the case of A2U A5G A13U U41C U80C it was 0.94; in that of A2G U26C A45U, 0.37.

Take A2G A45G U48C G55A U72C: the self-cleavage turned out to be 0.37. In the case of A2G G8U A20G U26C U43C U49C U51C it was 0.63. The value for A2G G9A U26A was 0.35; that for A2G G16A A20U C40G U69A was 0.21; that for A2G A20G U25C was 0.78. A2G U31C U41G A45G A56G: the self-cleavage turned out to be 0.

As to A2G C11G A35U U48C A56G U69A U78C, the self-cleavage stood at 0.09. Regarding A2G A18G A28G, the self-cleavage was determined as 0.58. In the case of A2G A28G G36C U43C U49A U69C it was 0.07; in that of A2G G9A A56G A77U, 0.09. In the case of A2G A64G U76C it was 0.4; in that of A2G A20G G53A A56U, 0.41.

As to A2U A5G A20U U72G, the self-cleavage came out at 0.27. With A2G A21G C50A, the self-cleavage turned out to be 0.07. The value for A2G G19U A45G A64G was 0.13; that for A2G U25G C34G C44U U60A A64G was 0.21. In the case of A2G U25C A35U U41C A45G it was 0.12; in that of A2G G6A U78C, 0.44; in that of A2G U43C G63U U67C, 0.13. On to A2U A3U U43C A45U G52C, for which the self-cleavage was 0.16. As to A2G A20G U51C, the self-cleavage is 0.68. The value for A2G U26A G42U C62U was 0.23; that for A2U A3U U41C was 1.07. Take A2G G6A A20G U41C U43G U49C U60A: the self-cleavage amounted to 0.05.

As for A2G C23U U25C, the self-cleavage amounted to 0.08. In the case of A2G G10A A15G A45U A64G U66C U78C it was 0.16; in that of A2G U41A U67C, 0.04; in that of A2G A35G U74C, 1.21. Consider A2U A13G C27G U51C, for which the self-cleavage is 0.07. For the variant A2G U25A A35G U72A, the self-cleavage turned out to be 0.12. In the case of A2G C37U U54A U78C, the self-cleavage worked out at 0.3. The value for A2G U25A A47U U49A A65U U67A U72A was 0.06; that for A2U A5G U41C U54C A75G was 0.3.

On to A2G U67C A75G U80C, for which the self-cleavage stood at 0.16. The value for A2U A5U C12U C38G U69A U78G was 0.06; that for A2U A13G G30U C37U A64G was 0.14; that for A2G A47G U74A U80C was 1.13. The value for A2G G30A U48G U78C was 0.31; that for A2G A20G C32U U72C A77G was 0.26. In the case of A2G A35G A56G U60A U78C it was 0.25; in that of A2G G6A G16U A20G, 0.4; in that of A2G G6A C11U A18G, 0.1.

Take A2G G10C A20U U48C A65U: the self-cleavage amounted to 0.12. As to A2G A15G U60C, the self-cleavage came out at 0.16. The value for A2G U26C G36A was 0.56. Consider A2G A18G U80C, for which the self-cleavage came to 0.56. In the case of A2G A20G U31C U54C U74C it was 0.33; in that of A2G U43C U69C, 0.5.

A2G U31A U66C: the self-cleavage turned out to be 0.28.

For A2U A3G A45C A56G U69C, the self-cleavage came to 0.18. For A2G A45G A64G A65G, the self-cleavage was 0.34.
